Results published in PubChem BioAssay AID686971 (National Center for Advancing Translational Sciences (NCATS), 2013).
Among all 360,000 compounds or so, about 7,500 (2.1%) were called active. Inconclusive results, whose numbers are uncertain, are shown with a selection of clear calls. Calls come from the whole dose curve; as a rule, active = well fitted cell-killing curve with a large enough effect; inconclusive = small, poorly fitted or top-dose-only effect, or effect the other way, or another doubt; inactive = no such curve, though single readings can be large or run the other way. Potencies of inconclusive entries are left out as doubtful fits.

assay: qHTS for induction of synthetic lethality in tumor cells producing 2HG: qHTS for the HT-1080-IDH1KD cell line; conditions: HT-1080 IDH1 knockdown viability, ATP luminescence, 48 h; activity, negative = toxicity: at 46.1 µM (top of the series) unless noted;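 for activity, negative = toxicity: 0% = DMSO wells and -100% = cell-free medium wells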
How it was run: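 In this qHTS, HT-1080 cells depleted of IDH1 are exposed for 48 h at 37 °C to compound titrations. Toxicity is scored from CellTiter-Glo luminescence, with DMSO as full viability and medium alone as none.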
Potency is the fitted concentration of half-maximal effect; tags give direction and shape of the fitted curve.

| Compound | Potency | activity, negative = toxicity |
| --- | --- | --- |
| CCOC(=O)C(NC(=O)c1ccc(Cl)cc1Cl)(Nc1ccc(C)cc1)C(F)(F)F (stereo unspecified) | inactive |  |
| COc1ccc(C(=O)NCc2ccc3[nH]c(C)cc3c2)cc1OC | inactive |  |
| O=C(CN1C(=O)NC2(CCCCCCC2)C1=O)Nc1ccc(Br)cc1Br | inconclusive [cytotoxic, partial curve] |  |
| CC(=O)Nc1nc(-c2ccccc2)nc(-c2ccccc2OC(C)=O)n1 | inconclusive [cytotoxic, single point] |  |
| Cc1ccc(NC(=O)c2cnc(N3CCN(c4ccccn4)CC3)c3ccccc23)c(Br)c1 | inconclusive [cytotoxic, single point] |  |
| O=C(NCCN1CCN(c2ccccc2)CC1)Nc1cccc(Cl)c1 | active: 18.4 µM |  |
| CCc1ccc(Nc2cc(=O)n(C3CCCCC3)c(=O)[nH]2)cc1 | inconclusive [cytotoxic, partial curve] |  |
| CCOc1cccc(N(C(=O)Cc2cccs2)C(C(=O)NC2CCCCC2)c2cccn2C)c1 (stereo unspecified) | inconclusive [cytotoxic, partial curve] |  |
| O=C1NCCN1CCNc1nc(NCC2CC2)nc2cc(-c3ccccc3)sc12 | inconclusive [cytotoxic, single point] |  |
| COc1cccc(C(c2nnnn2C2CCCCC2)N2CCN(C/C=C/c3ccccc3)CC2)c1OC (stereo unspecified) | inconclusive [cytotoxic, single point] |  |
| Cc1ccc(C)c(CN2CCC(CNC(=O)Nc3ccc(F)c(Cl)c3)CC2)c1 | active: 18.4 µM |  |
| Cc1ccc(O)c(C2=NNC(O)(C(F)(F)F)C2)c1 (stereo unspecified) | inconclusive [cytotoxic, single point] |  |
| O=C(Nc1ccccc1)c1cc(C2CCCCN2C(=O)OCc2ccccc2)on1 (stereo unspecified) | inactive |  |
| CC(=O)Nc1c(Br)cc2c(c1Br)Cc1cc(Br)ccc1-2 | inconclusive [cytotoxic, single point] |  |
| Cc1ccc(NC(=O)c2ccc(NC(=O)c3ccccc3)cc2)cc1C | inconclusive [cytotoxic, partial curve] |  |
| Cc1nn2c(nc(N3CCOCC3)c3ccccc32)c1C=C(C#N)C#N | inactive |  |
| CCOc1ccc(NS(=O)(=O)c2ccc(NC(=S)NC(=O)C(C)C)cc2)cc1 |  | inconclusive: -31.4% [cytotoxic] |
| Oc1c(CN2CCc3ccccc3C2)cc(Cl)c2cccnc12 | inconclusive [cytotoxic, single point] |  |
| Cc1ccc(P(=O)(CSC(=N)N)c2ccc(C)cc2)cc1 | inconclusive [cytotoxic, single point] |  |
| O=C(N/N=C\c1ccc([N+](=O)[O-])s1)c1cncc(Br)c1 | active: 6.51 µM |  |
| COc1cccc(/C=N/NC(=O)c2nnn(-c3nonc3N)c2C(C)C)c1OCc1ccc(F)cc1 | inconclusive [cytotoxic, single point] |  |
| Cc1nc(N2CCN(C)CC2)c2c(C)c(C(=O)Nc3ccc(F)cc3)sc2n1 | inactive |  |
| Cc1ccc(C(=O)Nc2ccc(C(=O)N/N=C/c3c[nH]c4ccccc34)cc2)cc1 | inconclusive [cytotoxic, single point] |  |
| Cn1c(CSc2nnc(SCc3ccccc3)s2)nc2ccccc21 | inactive |  |

| Compound | Potency | activity, negative = toxicity |
| --- | --- | --- |
| CC(C)c1ccc(N(C(=O)c2snc(C(N)=O)c2N)C(C(=O)NC2CCCC2)c2ccncc2)cc1 (stereo unspecified) | inconclusive [cytotoxic, single point] |  |
| COc1ccc(-c2cc(C)no2)cc1S(=O)(=O)N1CCN(c2ccccc2F)CC1 | inactive |  |
| CCc1nc2c(OCCC3CCCCC3)cccn2c1N(C)C(=O)C1CC1 | inconclusive [cytotoxic, single point] |  |
| C/C(=N\NC(=O)c1ccc(F)cc1)c1ccc(N2CCOCC2)cc1 | inactive |  |
| COc1cccc(NC(=O)C2(C)CCN2Cc2ccc(-c3ccccc3)o2)c1 (stereo unspecified) | inconclusive [cytotoxic, single point] |  |
| COC(=O)c1ccccc1NC(=O)C1CCN(C(=O)c2ccc(OC)cc2)CC1 | inactive |  |
| CCCCc1nc2sc3c(=O)[nH]c(=S)[nH]c3c2c2c1CCC2 | inactive |  |
| CC(O)(CS(=O)(=O)Cc1ccc(Cl)cc1)C(=O)Nc1cccc(C(F)(F)F)c1 (stereo unspecified) | active: 12.6 µM |  |
| COc1ccccc1NC(=S)N(Cc1ccco1)Cc1cc2cc(C)cc(C)c2[nH]c1=O | inconclusive [cytotoxic, partial curve] |  |
| CC(=O)Nc1ccc(CN2CCc3c([nH]c4ccccc34)C2c2ccccn2)cc1 (stereo unspecified) | active: 18.4 µM |  |
| C/C(=N\O)c1ccc(Cl)c(Cl)c1 | inactive |  |
| O=C(NC(Cc1c[nH]c2ccccc12)C(=O)N/N=C/c1ccc(Cl)cc1)c1cccs1 (stereo unspecified) | inconclusive [cytotoxic, single point] |  |
| COc1ccc(C(=O)NC2CCCc3c2cnn3-c2cccc(C)c2C)c(OC)n1 (stereo unspecified) | inconclusive [cytotoxic, partial curve] |  |
| O=C(COc1ccc(Br)cc1CO)N1CCCc2ccccc21 | inactive |  |
| Cc1ccccc1C(=O)N1CCN(c2ccc(NC(=O)c3ccc4c(c3)OCCO4)cc2)CC1 | inactive |  |
| CCCn1nc(NS(=O)(=O)c2cccc3nonc23)c2cc3ccccc3nc21 | inactive |  |
| CCN(CC)S(=O)(=O)c1ccc(-c2ccc(S(=O)(=O)N(CC)CC)cc2)cc1 | inconclusive [cytotoxic, partial curve] |  |
| C=CCNC(=O)C(=O)NCCOc1ccccc1Cl | inconclusive [cytotoxic, single point] |  |
| COc1ccc(C(NC(=O)C2CCN(Cc3ccc(Oc4ccccc4)cc3)CC2)c2ccccn2)cc1 (stereo unspecified) | active: 23.1 µM |  |
| O=C(/C=C/c1ccccc1Br)c1ccc2c(c1)OCO2 | inconclusive [cytotoxic, single point] |  |
| COc1cc(NC(=O)COc2ccc(C)c(C)c2)ccc1NC(=O)c1ccco1 | inactive |  |
| O=c1c2c(nc3c(-c4ccccc4)c[nH]n13)CCC2 | inconclusive [cytotoxic, single point] |  |
| COc1ccccc1NS(=O)(=O)c1cccc(C(=O)N/N=C/c2ccc([N+](=O)[O-])o2)c1 | inconclusive [cytotoxic, single point] |  |
| Cc1ccccc1NC(=O)Nc1nc2ccc(S(C)(=O)=O)cc2s1 | inconclusive [cytotoxic, single point] |  |

| Compound | Potency | activity, negative = toxicity |
| --- | --- | --- |
| COC(=O)c1sccc1NC(=O)COc1ccccc1Cl | inactive |  |
| O=C(Nc1cccc(Cl)c1)c1cccnn1 | inactive |  |
| Cc1ccc(NC(=O)NC2CCCc3ccccc32)cc1 (stereo unspecified) | inactive |  |
| CC(C)OC(=O)c1c(NC(=O)c2ccco2)sc2c1CCCCC2 | inconclusive [cytotoxic, single point] |  |
| CCOc1ccc(S(=O)(=O)n2cc(-c3ccc(F)cc3)c(N)n2)cc1 | inconclusive [cytotoxic, single point] |  |
| COc1ccc(N2CCN(c3ncnc4scc(-c5ccc(F)cc5)c34)CC2)cc1 | inconclusive [cytotoxic, single point] |  |
| Cc1c(NC(=O)CSc2nnc3c4ccccc4n(CCc4ccccc4)c3n2)c(=O)n(-c2ccccc2)n1C | inconclusive [cytotoxic, partial curve, poor fit] |  |
| COc1cccc(C(c2c(NC(=O)c3ccco3)sc(C)c2C)N2CCOCC2)c1 (stereo unspecified) | inactive |  |
| CSc1nccc(NC(=O)c2ccc(C(C)(C)C)cc2)n1 | inconclusive [cytotoxic, single point] |  |
| CC(NC(=O)Cc1cccs1)C(c1cccs1)N1CCN(c2ccccc2)CC1 (stereo unspecified) | inactive |  |
| O=C1c2ccccc2-c2c1c1ccccc1c(=O)n2CCO | inconclusive [cytotoxic, full curve, poor fit] |  |
| Cc1ccc2nc(-c3ccc(NS(=O)(=O)c4ccc(F)c(F)c4)cc3)sc2c1 | inconclusive [cytotoxic, single point] |  |
| CCN(CC)S(=O)(=O)c1ccc2c(c1)C(=NO)c1cc(S(=O)(=O)N(CC)CC)ccc1-2 | active: 7.31 µM |  |
| Cc1cc(C)cc(-n2c(N)c(C(=O)Nc3c(C)n(C)n(-c4ccccc4)c3=O)c3nc4ccccc4nc32)c1 |  | inconclusive: -19.1% [cytotoxic] |
| COc1ccccc1C(=O)NC(=S)Nc1ccc2[nH]c(=O)[nH]c2c1 | inconclusive [cytotoxic, single point] |  |
| Cc1ccc(-c2nc3c4ccccc4ccn3c2Cc2ccccc2)cc1 | inactive |  |
| COc1ccc(C(=O)O/N=C(\N)Cc2ccc([N+](=O)[O-])cc2)c(OC)c1 | active: 18.4 µM |  |
| CCCCNC(=O)c1ccc(NS(=O)(=O)c2ccc3[nH]c(=O)[nH]c3c2)cc1 | inactive |  |
| COc1cc(NC(=O)C2CC(=O)NC3=C2C(=O)CCC3)c(OC)cc1Cl (stereo unspecified) | inconclusive [cytotoxic, single point] |  |
| Cc1ccc(-c2c(C(=O)N/N=C/c3ccncc3)nnn2-c2nonc2N)cc1 | inconclusive [cytotoxic, single point] |  |
| O=C1NCC(c2ccccc2)C1C(=O)N/N=C\c1ccc(-c2ccc(Cl)c(Cl)c2)o1 (stereo unspecified) | inconclusive [cytotoxic, single point] |  |
| COc1ccc(CC(=O)Nc2ccc(-c3noc(-c4ccccc4OC)n3)cc2)cc1 | inconclusive [cytotoxic, single point] |  |
| Cc1ccc(C(=O)Nc2nc(COc3ccccc3)cs2)s1 | inconclusive [cytotoxic, single point] |  |
